The full ranking holds about 33,000 sequences; the median of “E-score (-0.5 to 0.5)” is about -0.016, and the highest 2% start at about 0.31. The list shows a part of the results.

In this assay the target is Cst6 (UniProt P40535). The assay is described as follows: PBM E-score (8-mer binding enrichment) (E-score (-0.5 to 0.5)); higher = stronger / more preferred TF binding; most listed sequences are background and not binding sites. As to conditions: protein concentration: 200 nM; construct: GST-DNA-binding domain. As to the method: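 Universal 'all 10-mer' protein binding microarrays (Agilent AMADID 015681) probed with GST-tagged S. cerevisiae TFs (full-length or DBD) made by in vitro transcription/translation (PURExpress), about 100-200 nM. Bound TF was detected with fluorescent anti-GST. Each ungapped 8-mer (which stands for itself and its reverse complement) is scored by the PBM enrichment score (E-score), a modified Wilcoxon-Mann-Whitney statistic from -0.5 to +0.5, computed with the Universal PBM Analysis Suite. Scale: above 0.35 generally sequence-specific binding.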
Consider AATATTAT, for which the “PBM E-score” value amounted to 0.242.

As to CGTTAACC, the “PBM E-score” value was determined as 0.166.

For GACTGAAA, the “PBM E-score” value was determined as 0.0376.

As to AGCCATCA, the “PBM E-score” value came out at 0.0745.

For AATACTTC, the “PBM E-score” value came to 0.0495.

Regarding CGTAACCC, the “PBM E-score” value is 0.172.

With ACATCGTC, the “PBM E-score” value was 0.163.

CATTGTCC: the “PBM E-score” value is -0.0804.

GTCGCACA: the “PBM E-score” value was -0.166.

Regarding GCGCCAAA, the “PBM E-score” value was -0.042.

Turning to CCTCGGAC, the “PBM E-score” value was -0.234.

For ACTCGACG, the “PBM E-score” value is 0.097.

As to GCCTCCGC, the “PBM E-score” value is -0.173.

For the sequence GCCGTCCC, the “PBM E-score” value was found to be 0.0769.

On to CCGATTAA, for which the “PBM E-score” value is 0.0604.

For the sequence CATATGGG, the “PBM E-score” value was 0.0397.

For CAAATCAC, the “PBM E-score” value is -0.00079.

As to AGATGCCT, the “PBM E-score” value is -0.0431.

Consider AGTAAACG, for which the “PBM E-score” value was determined as 0.0396.

Regarding CGATGAAA, the “PBM E-score” value came to 0.178.

Regarding GTAGATTA, the “PBM E-score” value turned out to be 0.196.

On to CTAGACAC, for which the “PBM E-score” value is 0.0253.

As to ATAGGCTA, the “PBM E-score” value is -0.0243.

For the sequence CCTAATTC, the “PBM E-score” value was -0.107.

With TGCAGGAA, the “PBM E-score” value came to 0.0886.

In the case of AAAAACCG, the “PBM E-score” value stood at 0.0586.

Take AAGACGGA: the “PBM E-score” value is 0.00374.

With TATCTGAA, the “PBM E-score” value was found to be 0.0183.

For CTCGACCC, the “PBM E-score” value was -0.224.

Turning to AATTTCGA, the “PBM E-score” value amounted to 0.0157.

For ATAGGAGC, the “PBM E-score” value is -0.266.

Regarding GAAGAGAA, the “PBM E-score” value was 0.0248.

CTCTTTGC: the “PBM E-score” value was -0.0971.

Regarding AACAGTTC, the “PBM E-score” value worked out at 0.032.

With GTTAACAA, the “PBM E-score” value is -0.0128.

Turning to CGGTGCAG, the “PBM E-score” value was -0.287.

As for ACCTCTAC, the “PBM E-score” value is -0.0692.

In the case of GGACCCCA, the “PBM E-score” value is -0.177.

Turning to GAGAGGTA, the “PBM E-score” value is -0.24.

As to CAACTTTC, the “PBM E-score” value stood at 0.0894.

For ATGTTAGA, the “PBM E-score” value was found to be 0.0207.

For the sequence CTATTATA, the “PBM E-score” value is 0.148.

As to CCACTACC, the “PBM E-score” value is -0.177.

In the case of GGAGCGCC, the “PBM E-score” value was -0.266.

On to CCTCCGAC, for which the “PBM E-score” value is -0.439.

Turning to CCCGAGCC, the “PBM E-score” value was -0.246.

On to CTAACACA, for which the “PBM E-score” value amounted to 0.132.

Regarding GCTCCTTA, the “PBM E-score” value is -0.147.

For the sequence TCGCCCCA, the “PBM E-score” value is -0.018.

Turning to AACTACGA, the “PBM E-score” value was 0.0875.

Take AAGCACTA: the “PBM E-score” value was found to be 0.0023.

Take CACTAGGA: the “PBM E-score” value was -0.147.

Turning to TATTGGCA, the “PBM E-score” value was -0.00661.

For the sequence AGCAGGTC, the “PBM E-score” value is -0.0387.

In the case of AGACTGCA, the “PBM E-score” value is -0.281.

For the sequence CCAGGATC, the “PBM E-score” value was -0.258.

As for ATCACTCG, the “PBM E-score” value worked out at 0.2.

Turning to AGCTGCAG, the “PBM E-score” value was -0.0265.

As for GTTTTAGA, the “PBM E-score” value is 0.195.

With CCTAAAGG, the “PBM E-score” value is -0.0902.

Consider CATCTGTC, for which the “PBM E-score” value is -0.0866.

Regarding CCAGTCCA, the “PBM E-score” value was -0.361.

For the sequence CCCAAATC, the “PBM E-score” value is -0.157.

For AACAGGAA, the “PBM E-score” value came to 0.03.

As for ATACCAGG, the “PBM E-score” value is -0.225.

Take AGATTAAC: the “PBM E-score” value is 0.118.

Regarding CCACGGGC, the “PBM E-score” value was -0.244.

In the case of AGTTTGAA, the “PBM E-score” value was 0.0915.

As to CTCTCAGC, the “PBM E-score” value was -0.0648.

For the sequence CCCGCTCG, the “PBM E-score” value was -0.16.

Turning to ACGCAGAA, the “PBM E-score” value was 0.134.

Turning to ACAATTGA, the “PBM E-score” value was 0.146.

For the sequence GTTTAAGA, the “PBM E-score” value is -0.032.

For the sequence ACCGCAGC, the “PBM E-score” value is -0.0993.

Consider ATGTAGAC, for which the “PBM E-score” value was -0.0216.

Consider ATAGTTAG, for which the “PBM E-score” value was determined as 0.0657.

As to TAGGATGA, the “PBM E-score” value worked out at 0.199.

GTATTGTA: the “PBM E-score” value was found to be 0.245.

Turning to CTCAAGAG, the “PBM E-score” value is -0.284.

In the case of AGCTCTAA, the “PBM E-score” value was -0.115.

With AGCATGCA, the “PBM E-score” value was -0.103.

As to CACTAATA, the “PBM E-score” value was 0.211.

For the sequence AGACACCT, the “PBM E-score” value is -0.151.

In the case of ATATTGTA, the “PBM E-score” value worked out at 0.149.

As to CCTTACCG, the “PBM E-score” value was determined as 0.00947.

As for CACACGGA, the “PBM E-score” value was 0.0766.

Turning to GGGCTACC, the “PBM E-score” value is -0.139.

For the sequence CTGCGACA, the “PBM E-score” value was -0.0645.

Turning to ATAGTACG, the “PBM E-score” value stood at 0.0413.

For the sequence CAATGATC, the “PBM E-score” value came out at 0.095.

In the case of ATTGGACA, the “PBM E-score” value was 0.0169.

As for AAGCCAAG, the “PBM E-score” value was -0.241.

For CATCGATG, the “PBM E-score” value came out at 0.187.

ACACGTTA: the “PBM E-score” value amounted to 0.126.

Turning to AAAAATTC, the “PBM E-score” value turned out to be 0.186.

Turning to AAAAGCAC, the “PBM E-score” value is -0.19.

Regarding ACCATAGC, the “PBM E-score” value is -0.0917.

For the sequence TAACAACA, the “PBM E-score” value was determined as 0.0959.

Consider CTTGTTGC, for which the “PBM E-score” value came out at 0.0961.

Take ATTAGCCG: the “PBM E-score” value is 0.026.

As to CACGTGCG, the “PBM E-score” value was -0.038.

Regarding CACCTCCA, the “PBM E-score” value amounted to 0.0498.

Turning to ACCTAGCG, the “PBM E-score” value was -0.147.

For ATAGCTGG, the “PBM E-score” value is -0.172.

AGGGGCGG: the “PBM E-score” value was -0.0232.

Consider CAATAGGG, for which the “PBM E-score” value is -0.159.

As to CGAGTCCC, the “PBM E-score” value was -0.194.

On to AAACCCAC, for which the “PBM E-score” value came out at 0.0356.

ACATTGTC: the “PBM E-score” value was 0.148.

As for CACGTAAG, the “PBM E-score” value worked out at 0.292.

Source of the values: the supplement of paper PMC3334620.
